Data taken from article PMC12136788.
Some of the results follow.

T1: UNK ZnF1-3 (human, UniProt Q9C0B0 31-174)
T1 sequence: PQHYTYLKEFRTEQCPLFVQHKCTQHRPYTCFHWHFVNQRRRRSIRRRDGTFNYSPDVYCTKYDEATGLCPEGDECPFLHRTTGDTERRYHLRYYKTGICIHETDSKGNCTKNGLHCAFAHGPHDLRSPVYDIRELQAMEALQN

B1: chr2:202488911:202488912:-_ENSG00000155755_ENST00000286196|hu_mus|hu_hu_hu_mus_False|58_88 (ssRNA)
RNA: GGGAGUUCUACAGUCCGACGAUCAUUGAAACAUUUUUCAUAAUCUCAGAGAUGUUUUCAGCAUUAUGUAACAAAAGAUCUAUUACAAAUACAUGUAUCUUAUAAAAAUACACUUAAAAACACGAGUGGGGAGCGCAGGCGCCACAACAGAGGAUUGAGCAUCA
B2: chr5:40767622:40767623:-_ENSG00000132356_ENST00000397128|hu_mus|hu_hu_hu_mus_False|28_58 (ssRNA)
RNA: GGGAGUUCUACAGUCCGACGAUCAUCUUUUAUUGCGGCCCUCUUCAUGGGAUCCACCUGCAGCAUAUGUUUCAAAAGGCUAAUCACUGAAGGGUUUAAGUACUGAGGGGUAUAGAAGAUCCCAUCACAUAUCUUCUUAAAAAGCAACAGAGGAUUGAGCAUCA
B3: chr22:46125322:46125323:+_ENSG00000130638_ENST00000252934|hu_hu|FALSE|FALSE (ssRNA)
RNA: GGGAGUUCUACAGUCCGACGAUCAAACACAGGGAUGUCAUCCUUGGUGAGUGGCUCAUCACUCGUUAUCUUGGCUAUCAUAAGGUCUAACAGUGUAACUCUUUCUUGAUUGUUCAGUUUGGGAAACAUGGCUUGUACCAAUUCCAACAGAGGAUUGAGCAUCA
B4: chr3:10015032:10015033:+_ENSMUSG00000027533_ENSMUST00000029046|mus_mus|mus_mus_mus_hu_True|8_18 (ssRNA)
RNA: GGGAGUUCUACAGUCCGACGAUCGUUUUUACCAUCACAAGUGAUGAUACAAUCUGGCUUGGCCAUUGCGCCCAUUUUUCGCAAAGCUAUUCCCACUCCUAGCUCCUUCAUGUAUUCCUCAAAGCCGUGGCUUUCCACCAGGCGCAACAGAGGAUUGAGCAUCA
B5: chr3:7442581:7442582:+_ENSMUSG00000027499_ENSMUST00000028999|mus_hu|motif|central (ssRNA)
RNA: GGGAGUUCUACAGUCCGACGAUCUAUUGUACAAUACAAAACAGUGUAAAUAACACAGCAGUAACACACAGAUACGUAAUGCGGAAAACAGUGCUUUCUGGAUCUUUCUUUUACUGGGUGAACACUUGAGCCAGAGAUAUUUAACAACAGAGGAUUGAGCAUCA
B6: chr13:41657021:41657022:+_ENSG00000120688_ENST00000379487|hu_mus|FALSE|FALSE (ssRNA)
RNA: GGGAGUUCUACAGUCCGACGAUCCACAGAGCACAGAGCAGCUUGGAAAGGACACCCCUUCCAUCCAUAGCUUCACAGUCACUCGUCGUCACCUCGCUGUCUUAAGUUUCGAGAUUUUCCAUUUUCAAGUCUUCUCUUUUUGAACAACAGAGGAUUGAGCAUCA
B7: chr12:48362563:48362564:+_ENSG00000134291_ENST00000256686|hu_hu|hu_hu_hu_mus_False|28_98 (ssRNA)
RNA: GGGAGUUCUACAGUCCGACGAUCUCCGUCAAGCCCUUCAAGCCCCACUUGCGGGGGAAACUGUAAUCACUUUGUAUGGGGAAGGAAAAGAAACGCCAAAAACUUUCUUUCUUUCUUGGGUGGGGUGAGGCGGGAGGGGGAGGUCAACAGAGGAUUGAGCAUCA
B8: chr3:121486967:121486968:-_ENSMUSG00000028127_ENSMUST00000029770|mus_hu|FALSE|FALSE (ssRNA)
RNA: GGGAGUUCUACAGUCCGACGAUCUCCAAUUGCACUCGUUAACUUAAAGAUAUACAAAACUAUGUCUAAAAAUGGCUUACUAAGAUUUGAAUACAGAUCGACUACACUGUUACAAAAUUUUUCUACAUCUUGUGUAAGCAGCUGCAACAGAGGAUUGAGCAUCA
B9: 152509328_152509448_733_3pUTR_ENSMUSG00000039037_ENSMUST00000044278|mouse|control|control (ssRNA)
RNA: GGGAGUUCUACAGUCCGACGAUCUAGGUUGUUGUACGCCUGGCCCUUGCCAUCCCGGCGCAUGUAGCUGCUGGGGCCCCAGAAGAUGAACACGGUGCCCUGGCUCACAUUGAGCAGGUCAUGGCGGUUGCGGAGGAUCCUCUGCAACAGAGGAUUGAGCAUCA
B10: chrX:69798090:69798091:-_ENSMUSG00000031343_ENSMUST00000055966|mus_mus|motif|central (ssRNA)
RNA: GGGAGUUCUACAGUCCGACGAUCAAGUCCCCAGGUUCUUGUCGUCUUGAUUCCCCUUGGCUAGUGGUUCCAGGGAGAAUACGGAUCAGGAGAAGAAGUACAACUCUGGUCACAUAAAAGUGCCACAUUUGUGUGAUUAUCAUCCAACAGAGGAUUGAGCAUCA
B11: chr2:5814250:5814251:-_ENSMUSG00000025816_ENSMUST00000102981|mus_hu|mus_mus_mus_hu_True|38_58 (ssRNA)
RNA: GGGAGUUCUACAGUCCGACGAUCUUCCUUUCCGGUUUCUGAAUUUCUGGUAGAACUGCACAGAAUGGUUUGAUAACUUCUAAAAACUUGAUGCCCAUGGCGGCGGCUGGGGAGGCCCAGGGGGAAACCGCGGCCUCGGCGCUGCAACAGAGGAUUGAGCAUCA
B12: 23766683_23767305_2165_CDS_ENSMUSG00000020273_ENSMUST00000020513|mouse|control|control (ssRNA)
RNA: GGGAGUUCUACAGUCCGACGAUCAAGUCGAAUGAACUUUUCUAUGUCUUUCAGCCUCUUAGAAGUCCCAUCUGUAGGUGGCGAAUGGGAUCUUUUGGGUGUAACAUUCUUAGUAAUAUUUGAUAUCCCAUUUAGAUGUGGUUGCAACAGAGGAUUGAGCAUCA
B13: chrX:45560084:45560085:-_ENSMUSG00000036985_ENSMUST00000037960|mus_mus|motif|central (ssRNA)
RNA: GGGAGUUCUACAGUCCGACGAUCGGGACUACUCGAGAGAAGAUGCAGAGGCUGAGGUCAGCUUUAAAAUCAGGUCGUCGGCGGGUGUUGCCACUGGGUCAAACAUUAUCAAGAGCCCUGAACAAGGGACACUGAACUCGGCCGCAACAGAGGAUUGAGCAUCA
B14: chr2:202488911:202488912:-_ENSG00000155755_ENST00000286196|hu_mus|hu_hu_hu_mus_False|8_68 (ssRNA)
RNA: GGGAGUUCUACAGUCCGACGAUCAUUGAAACAUUUUUCAUAAUCUCCAGUAGCAUUUCAGCAUUAUUAAUCAAAAACUCAAUUGUAAAUACAUGUAUCUUAUAAAAAUACACUUAAAAACACGAGUAAAAAUGGGAGGCGCCACAACAGAGGAUUGAGCAUCA
B15: chr1:154963231:154963232:+_ENSMUSG00000042751_ENSMUST00000043313|mus_mus|FALSE|FALSE (ssRNA)
RNA: GGGAGUUCUACAGUCCGACGAUCGGCUCUGCCUUCUUUCCUGGAUGUGGCCCUCCGCACUUACGAGUGCUGAGACUGGCUAUAGUGUCCUAUCAGAAGGGAAGUAAACCACAGGAGAGCAUCAAGACUACAAACAAACAAACACAACAGAGGAUUGAGCAUCA
B16: 31412669_31414811_1497_CDS_ENSMUSG00000039100_ENSMUST00000090227|mouse|control|control (ssRNA)
RNA: GGGAGUUCUACAGUCCGACGAUCUCGAAGUACCUCUCUCAGUAACAGGAUGAAGGAGGCAAAGUAGAACACAUACACCAUUCCCACCAACCAGUGCAGAAACAUCGUGGUCCCUGGAGCUGACUGAAAGCUCAGCUCUCGAUCCAACAGAGGAUUGAGCAUCA
B17: 39650104_39650224_1318_3pUTR_ENSG00000100941_ENST00000216832|human|control|control (ssRNA)
RNA: GGGAGUUCUACAGUCCGACGAUCUUUAUCUGGCUCAAUUUCAAAUUCCAUUUCUGGUUCCAAUUCUUUGCUAGCUUCAUUUUCUGAAGGUUCUACACUUUCAACUCGAUUAGUUUCCAUUACCUCCUGGUCAGCAAUUACAUGCAACAGAGGAUUGAGCAUCA
B18: chr10:79632565:79632566:+_ENSMUSG00000045193_ENSMUST00000105365|mus_mus|FALSE|FALSE (ssRNA)
RNA: GGGAGUUCUACAGUCCGACGAUCGCGCCUGCUCGUUGGUGUCGAAGCUGAGUCCUCCCACGAAAAGCUUGCCUUCAUCUGAUGCCAUGGCAGCCGCUGAGUCGGGCAGGUCCCUGACGCGAGCGGGAAGACAGCGCGCCACACCAACAGAGGAUUGAGCAUCA
B19: chr12:39763582:39763583:-_ENSG00000139116_ENST00000544797|hu_mus|hu_hu_hu_mus_False|78_88 (ssRNA)
RNA: GGGAGUUCUACAGUCCGACGAUCCUCUAGGAACUGGGCAUUCACUUUAAAAUCUGGAGCAGGAAGCCCGUUUUUAAUCGCUGAGGUCUUUUUCUCAUCAAUACUCUUGAACAGGUGUCUAACAGCACGAGAGAUGAUGCCCUGCAACAGAGGAUUGAGCAUCA
B20: chr1:39494447:39494448:+_ENSG00000168653_ENST00000372967|hu_mus|hu_hu_hu_mus_False|58_108 (ssRNA)
RNA: GGGAGUUCUACAGUCCGACGAUCGCAUCGACCAGCCUUCUUAUAGGGCUGUUCUGCGCUUAGGAACAUAAAGUGCCGAUCUAUGUUGAUGCCCAGCUUUUUCUGUAUGUCAAGGAAAGGCAUGGCUCUGCAGUGCCCUUGUCACAACAGAGGAUUGAGCAUCA
B21: 121491449_121500598_1676_CDS_ENSG00000173226_ENST00000310864|human|control|control (ssRNA)
RNA: GGGAGUUCUACAGUCCGACGAUCUCUGUGCUGCUGGGCUCGCUCUUCUAGGGCCCUGCCCAUAAAGUAGUGUUGCAGUCGUUCUUGAGCUUGGGCAUGGAGCUCCCUACUGACCACAUCUGACAUUGGAGAGCCCAAAUGUCUCAACAGAGGAUUGAGCAUCA
B22: chr12:45383693:45383694:+_ENSMUSG00000036257_ENSMUST00000043082|mus_mus|FALSE|FALSE (ssRNA)
RNA: GGGAGUUCUACAGUCCGACGAUCACACAAAAUGCAAUUGUUUGCUUCUCUGUUUCCCACAAAGACUUCUUGCAUUAUUAAGGAAGUAAAUAUAUAUAUCUAGAGUCAAAUUAAUAGACAUAACUUAAAAAUCAUUUAUUUUCUCAACAGAGGAUUGAGCAUCA

Molecular target: T1, UNK ZnF1-3
Test: nsRBNS (natural sequence RNA bind-n-seq); RBNS binding buffer (assumed for nsRBNS): 25 mM Tris pH 7.5, 150 mM KCl, 3 mM MgCl2, 0.01% Triton X-100, 500 ug/ml BSA, 20 U/ml SUPERase-In, 4 C; UNK is unkempt and MSI1 is Musashi-1; names of the RNAs are library labels; protein concentration not given here; high values mean tight binding

Binder	binding signal
B1	0.7 enrichment R
B2	1.35 enrichment R
B3	0.76 enrichment R
B4	0.64 enrichment R
B5	0.744 enrichment R
B6	1.11 enrichment R
B7	1.73 enrichment R
B8	0.725 enrichment R
B9	0.82 enrichment R
B10	0.834 enrichment R
B11	0.975 enrichment R
B12	0.52 enrichment R
B13	2.63 enrichment R
B14	0.816 enrichment R
B15	0.966 enrichment R
B16	1.2 enrichment R
B17	0.472 enrichment R
B18	0.692 enrichment R
B19	1.24 enrichment R
B20	0.858 enrichment R
B21	0.46 enrichment R
B22	2.23 enrichment R
